Experimental data as given in PubChem BioAssay AID1259407 (Chemical Carcinogenesis Research Information System (CCRIS), 2018).
Entries after “also recorded” stand apart in the source; their conditions may differ. Certain results were filed several times, with different values. The list is limited to them. The rule behind the calls is not given here. An entry can have further records. The values listed for one entry differ for a reason that is not stated; they may come from other doses, times, organisms or constructs than stated. Brackets tell where a record comes from. Letters hold for one entry only. Additions like (4×) give the number of equal values in this list.

Test system: CCRIS mutagenicity, Ames/micronucleus/aberration tests
Test: CCRIS mutagenicity studies
[1] = Test System: AMES SALMONELLA TYPHIMURIUM, Strain/Indicator: TA1535, Metabolic Activation: NONE, Method: PREINCUBATION
[2] = End Point: IN VITRO CHROMOSOMAL ABERRATIONS, Test System: CHL CELLS, Metabolic Activation: NONE
[3] = Test System: MOUSE LYMPHOMA, Strain/Indicator: L5178Y (TK+/TK-), Metabolic Activation: NONE, Method: SUSPENSION/PLATE
[4] = Test System: Mouse lymphoma, Strain/Indicator: L5178Y (tk+/tk-), Metabolic Activation: None, Method: Suspension/plate

O=CC=O
mutagenic call (Test System: AMES SALMONELLA TYPHIMURIUM, Strain/Indicator: TA98, Metabolic Activation: RAT LIVER S-9, PHENOBARBITAL AND BETA-NAPHTHOFLAVONE, Method: PREINCUBATION): inactive; negative and active; positive
mutagenic call (Test System: AMES SALMONELLA TYPHIMURIUM, Strain/Indicator: TA102, Metabolic Activation: NONE, Method: PREINCUBATION): active; positive [study A] and inactive; negative [study B] and active; positive [study C]
mutagenic call [1]: inactive; negative and active; positive

NCc1ccc(CN)cc1
mutagenic call (Test System: AMES SALMONELLA TYPHIMURIUM, Strain/Indicator: TA104, Metabolic Activation: NONE, Method: PREINCUBATION): inactive; negative (2×) and active; positive
mutagenic call (Test System: AMES SALMONELLA TYPHIMURIUM, Strain/Indicator: TA104, Metabolic Activation: RAT, LIVER, S-9, PHENOBARBITAL AND BETA-NAPHTHOFLAVONE, Method: PREINCUBATION): active; positive (2×) and inactive; negative

N#Cc1cc([N+](=O)[O-])ccc1N
mutagenic call [2]: active; positive (structural changes) and inactive; negative

C1CSCCS1
mutagenic call (Test System: AMES SALMONELLA TYPHIMURIUM, Strain/Indicator: TA98, Metabolic Activation: NONE, Method: STANDARD PLATE): active; positive [study A] and inactive; negative [study B]
mutagenic call (Test System: AMES SALMONELLA TYPHIMURIUM, Strain/Indicator: TA100, Metabolic Activation: NONE, Method: STANDARD PLATE): active; positive [study A] and inactive; negative [study B]

C[Si](C)(C)Cl
mutagenic call [3]: inactive; negative [study A]; also recorded: inactive; negative. reevaluation of results: negative [study B]

COc1nc(C(Cl)(Cl)Cl)c(Cl)c(OC)c1Cl
mutagenic call [4]: active; positive and inactive; negative

O=C1N(CO)C(O)C(O)N1CO (stereo unspecified)
mutagenic call (Test System: AMES SALMONELLA TYPHIMURIUM, Strain/Indicator: TA98, Metabolic Activation: NONE, Method: PREINCUBATION): inactive; negative [100 to 10000 µg/plate] and active; positive [333 to 10000 µg/plate]
mutagenic call (Test System: AMES SALMONELLA TYPHIMURIUM, Strain/Indicator: TA100, Metabolic Activation: HAMSTER, LIVER, S-9, AROCLOR 1254 (10%), Method: PREINCUBATION): inactive; negative [100 to 10000 µg/plate] and active; positive [333 to 10000 µg/plate]
mutagenic call (Test System: AMES SALMONELLA TYPHIMURIUM, Strain/Indicator: TA100, Metabolic Activation: RAT, LIVER, S-9, AROCLOR 1254 (10%), Method: PREINCUBATION): inactive; negative [100 to 10000 µg/plate] and active; positive [333 to 10000 µg/plate]

CCN(CC)c1cc(NC(C)=O)c(N=Nc2c(Cl)cc([N+](=O)[O-])cc2[N+](=O)[O-])cc1OC
mutagenic call [2]: inactive; negative (2×); also recorded: inactive; negative; authors report equivocal results for ploidy changes

[O-][Cl+]O
mutagenic call (End Point: IN VIVO MICRONUCLEUS, Test System: BONE MARROW POLYCHROMATIC ERYTHROCYTES, Species: MOUSE, Strain/Sex: DDY/MALE, Route: IP): active; positive and inactive; negative

CCSCCSP(=S)(OC)OC
mutagenic call (Test System: AMES SALMONELLA TYPHIMURIUM, Strain/Indicator: TA1535, Metabolic Activation: NONE, Method: STANDARD PLATE): inactive; negative [study A] and active; positive [study B]

COC(=O)Nc1nc2ccccc2[nH]1
mutagenic call (End Point: IN VITRO CHROMOSOMAL ABERRATIONS, Test System: HUMAN PERIPHERAL LYMPHOCYTES, Metabolic Activation: NONE): inactive; negative [study A]; also recorded: inactive; negative; weakly positive at 25 um [study B]
mutagenic call (Test System: AMES SALMONELLA TYPHIMURIUM, Strain/Indicator: TA98, Metabolic Activation: RAT, LIVER, S-9, AROCLOR 1254, Method: STANDARD PLATE): active; positive [study A] and inactive; negative [study A] and inactive; negative [study B]

CC(C)CON=O
mutagenic call [1]: active; positive [study A] and inactive; negative [study B]
mutagenic call [4]: active; positive; also recorded: active; equivocal (previously evaluated positive); also recorded: equivocal

CC(=O)N1CCc2cc([N+](=O)[O-])ccc21
mutagenic call [2]: inactive; negative and active; positive (ploidy changes)

O=[N+]([O-])c1ccc2c(c1)Oc1ccccc1O2
mutagenic call (Test System: AMES SALMONELLA TYPHIMURIUM, Strain/Indicator: TA98(NR), Metabolic Activation: NONE, Method: PREINCUBATION): inactive; negative and active; positive

O=C(O)c1ccccc1[N+](=O)[O-]
mutagenic call (Test System: AMES SALMONELLA TYPHIMURIUM, Strain/Indicator: TA100, Metabolic Activation: NONE, Method: PREINCUBATION): active; positive [study A] and inactive; negative [study B] and inactive; negative [study C]

O=C([O-])c1ccc2ccccc2c1.[Mn+2].[O-]C(O)c1ccc2ccccc2c1
mutagenic call [3]: inactive; negative. reevaluation of results: inconclusive [study A]; also recorded: inactive; negative [study B]
mutagenic call (Test System: MOUSE LYMPHOMA, Strain/Indicator: L5178Y (TK+/TK-), Metabolic Activation: RAT, LIVER, S-9, AROCLOR 1254, Method: SUSPENSION/PLATE): active; positive. reevaluation of results: equivocal [study A]; also recorded: active; positive [study B]

C=CCOC(=O)CC(C)C
mutagenic call (End Point: IN VITRO CHROMOSOMAL ABERRATIONS, Test System: CHO CELLS, Metabolic Activation: RAT, LIVER, S-9, AROCLOR 1254): inactive; negative and active; positive
